90 molecules from publication PMC4336329 (PLoS ONE, 2015) can be followed below.

Hit rate of the full screen: of about 310,000 compounds, about 2,200 (0.71%) showed an effect of 50% or more. Effects have a minus sign here. Some of the results follow. Where a SMILES comes first, the peptide text is derived from it. The star is where a group is joined. Cbz = O=C(OCc1ccccc1)*

The target of this test is human ether-à-go-go-related gene (hERG) potassium channel (human, UniProt Q12809). The test is described as follows: primary screen, population patch clamp on CHO cells stably expressing hERG.
Chain of human ether-à-go-go-related gene (hERG) potassium channel (Q12809 whole entry, looked up): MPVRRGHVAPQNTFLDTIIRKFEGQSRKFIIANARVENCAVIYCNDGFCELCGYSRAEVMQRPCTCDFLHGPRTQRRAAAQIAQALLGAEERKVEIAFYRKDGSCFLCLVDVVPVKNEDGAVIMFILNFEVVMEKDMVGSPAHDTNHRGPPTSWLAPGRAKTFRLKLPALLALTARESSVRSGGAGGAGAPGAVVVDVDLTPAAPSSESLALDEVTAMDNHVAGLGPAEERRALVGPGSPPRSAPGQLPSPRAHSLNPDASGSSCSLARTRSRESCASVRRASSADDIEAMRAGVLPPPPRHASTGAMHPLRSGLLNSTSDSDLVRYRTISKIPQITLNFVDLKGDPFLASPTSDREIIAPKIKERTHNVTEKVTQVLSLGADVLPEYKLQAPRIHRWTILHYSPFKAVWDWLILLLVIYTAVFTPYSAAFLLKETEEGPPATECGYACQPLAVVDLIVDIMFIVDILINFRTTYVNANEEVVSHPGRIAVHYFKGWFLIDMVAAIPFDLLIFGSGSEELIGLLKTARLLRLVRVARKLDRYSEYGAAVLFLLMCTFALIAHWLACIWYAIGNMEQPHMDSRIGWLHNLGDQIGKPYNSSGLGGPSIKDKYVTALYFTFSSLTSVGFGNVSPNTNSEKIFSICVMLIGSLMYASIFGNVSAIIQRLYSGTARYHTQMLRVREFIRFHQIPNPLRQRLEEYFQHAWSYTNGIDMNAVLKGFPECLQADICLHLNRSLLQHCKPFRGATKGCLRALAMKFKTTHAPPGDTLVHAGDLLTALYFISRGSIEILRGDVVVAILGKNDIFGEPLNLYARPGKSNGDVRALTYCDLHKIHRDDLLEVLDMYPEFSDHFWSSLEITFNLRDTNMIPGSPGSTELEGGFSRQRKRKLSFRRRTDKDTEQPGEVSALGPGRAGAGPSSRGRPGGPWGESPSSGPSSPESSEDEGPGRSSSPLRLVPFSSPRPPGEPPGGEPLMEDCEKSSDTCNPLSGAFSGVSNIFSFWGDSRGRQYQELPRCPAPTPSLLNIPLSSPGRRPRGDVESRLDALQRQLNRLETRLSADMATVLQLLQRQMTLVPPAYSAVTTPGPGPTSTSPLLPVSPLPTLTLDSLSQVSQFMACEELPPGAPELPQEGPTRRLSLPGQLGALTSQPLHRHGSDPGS
As for `Cc1ccccc1Nc1nc(N)c2ccccc2n1.Cl`, the “hERG current change (%, negative = inhibition) at 1uM” value was determined as 13.7%.

As for `O=C(Nc1cc(C(F)(F)F)ccc1-n1cncn1)c1ccc([N+](=O)[O-])o1`, the “hERG current change (%, negative = inhibition) at 1uM” value came out at 0.813%. With `O=C(CN1C(=O)NC2(CCCC2)C1=O)N1CCN(S(=O)(=O)c2ccccc2)CC1`, the “hERG current change (%, negative = inhibition) at 1uM” value is reported as 12.9%. As for `CC(CCc1ccc(O)cc1)N(C)CCc1ccccc1` (stereo not drawn), the “hERG current change (%, negative = inhibition) at 1uM” value is given as -37.4%.

As to `O=C(COC(=O)C1CCC1)Nc1ncc(Cl)cc1Cl`, the “hERG current change (%, negative = inhibition) at 1uM” value stood at 8.4%.

In the case of `COc1ccc(CCNC(=O)Cn2cc(C(F)(F)F)cc(Cl)c2=O)cc1`, the “hERG current change (%, negative = inhibition) at 1uM” value is -0.219%.

Regarding `Cc1cc(C)c(C#N)c(SCSCc2ccccc2)n1`, the “hERG current change (%, negative = inhibition) at 1uM” value amounted to 4.89%. To `COc1ccccc1C(=O)N1CCN(C(=O)COc2cccc(C)c2)CC1` belongs -2.56%. For `Cc1ccc(C)c(NC(=O)CN(C)C(=O)c2cccc(N3C(=O)CCC3=O)c2)c1`, the “hERG current change (%, negative = inhibition) at 1uM” value worked out at 4.88%. Turning to `CCOC(=O)C1CCCN(C(=S)NC2CCCCC2)C1` (stereo not drawn), the “hERG current change (%, negative = inhibition) at 1uM” value is given as -1.2%. Turning to `COc1cccc(/C=N/Nc2nnc3c(n2)[nH]c2ccccc23)c1OC`, the “hERG current change (%, negative = inhibition) at 1uM” value was determined as 13.3%.

`CCC(NC(=O)c1ccccc1NC(=O)c1ccco1)C(=O)NC1CCCCC1` (stereo not drawn): the “hERG current change (%, negative = inhibition) at 1uM” value is recorded as -2.35%.

Regarding `O=C(/C=C/c1ccccc1)c1ccc2c3c(cccc13)CC2`, the “hERG current change (%, negative = inhibition) at 1uM” value turned out to be 7.8%.

For the molecule `C/C(=N\Nc1ccc(S(=O)(=O)Nc2ccccc2)cc1[N+](=O)[O-])c1ccncc1`, the “hERG current change (%, negative = inhibition) at 1uM” value was found to be 11.4%. In the case of `Cc1ccccc1-c1nnn(CC(=O)Nc2ccc3c(c2)OCCO3)n1` it was 7.3%; in that of `CC(C)c1ccc(C(=O)N2CCN(CCO)CC2)cc1.Cl`, 12.7%. To `CN1CCN(S(=O)(=O)c2ccc(Cl)nc2)CC1` belongs 8.63%.

`COc1cc(OC)c(C(=O)N/N=C/c2ccoc2)cc1OC`: the “hERG current change (%, negative = inhibition) at 1uM” value is on record as 11%. To `O=c1[nH]cc(O)c(=O)[nH]1` belongs 11.8%; to `Cc1cccc(OCC(=O)N/N=C2/SCC(=O)N2Cc2ccco2)c1`, 5.41%; to `CC(CNC(=O)C1CCCN(S(=O)(=O)N2CCOCC2)C1)c1ccccc1` (stereo not drawn), 13.2%.

For `COc1ccc(/C=N\NC(=O)c2cc(O)c(O)c(O)c2)cc1COc1ccc(C(=O)OCC(C)C)cc1`, the “hERG current change (%, negative = inhibition) at 1uM” value stood at 13.3%. Regarding `CC(=O)N1CCN=C1SCc1ccccc1Cl`, the “hERG current change (%, negative = inhibition) at 1uM” value is on record as 14.8%. As to `CN(C1CCCCC1)S(=O)(=O)c1ccc2c(c1)c(=O)c(C(=O)N1CCc3ccccc3C1)cn2C`, the “hERG current change (%, negative = inhibition) at 1uM” value came to 1.11%.

`COC(=O)C(CO)NC(=O)C1CCCN1C(=O)CNC(=O)OCc1ccccc1` (stereo not drawn) (Cbz-Gly-Pro-Ser-OMe; configuration not given here): the “hERG current change (%, negative = inhibition) at 1uM” value is recorded as 16.5%. Consider `CCc1c(C)nc2ncnn2c1Nc1ccc(C)cc1`, for which the “hERG current change (%, negative = inhibition) at 1uM” value was 7.86%. On to `CC(=O)c1ccc(OCc2cc(C(=O)N3CCOCC3)no2)cc1`, for which the “hERG current change (%, negative = inhibition) at 1uM” value is 16.5%. For `Cc1cccc(-c2ncc(CN3CCCC(CO)(Cc4ccccc4C)C3)cn2)c1` (stereo not drawn), the “hERG current change (%, negative = inhibition) at 1uM” value came to 11.1%. In the case of `CC1(C)O[C@@H]2C[C@H]3[C@@H]4CCC5=CC(=O)C=C[C@]5(C)[C@@]4(F)[C@@H](O)C[C@]3(C)[C@]2(C(=O)CO)O1` it was 16.7%. To `Cc1cc2ccccn2c1C(=O)c1nc(N2CCOCC2)ncc1Cl` belongs -4.06%; to `COc1ccc(C(=O)NC(=S)N2CCN(C)CC2)cc1Br`, 7.4%; to `O=C(NC(=S)Nc1cccc(Cl)c1N1CCCC1)c1ccc(-c2cccc([N+](=O)[O-])c2)o1`, 13.3%.

In the case of `Cc1ccc(C(=O)O/N=C(/c2nonc2N)N(C)C)cc1`, the “hERG current change (%, negative = inhibition) at 1uM” value is 1.98%. To `Nn1c(SCc2cccc(Br)c2)nnc1-c1cccnc1` belongs 11.9%. Turning to `C/C(=N\n1cnnc1)c1ccc(C#N)cc1`, the “hERG current change (%, negative = inhibition) at 1uM” value is on record as 13.6%. In the case of `Cc1onc(-c2ccccc2)c1C(O)c1ccc(F)cc1` (stereo not drawn) it was 11.8%.

Consider `Cc1nn(CC(=O)NCC(C)c2ccccc2)c(=O)c2cc3occc3n12` (stereo not drawn), for which the “hERG current change (%, negative = inhibition) at 1uM” value was 4.72%. To `CCNC(=S)N1CCN(c2ncccn2)CC1` belongs 10.6%. Take `CCc1ccccc1-n1nnnc1SCC(=O)Nc1ccc(N2CCN(C)CC2)cc1`: the “hERG current change (%, negative = inhibition) at 1uM” value is -3.2%.

For `Cc1ccc(N=C2NC(=O)CS2)cc1C`, the “hERG current change (%, negative = inhibition) at 1uM” value stood at 10.6%.

As to `COc1ccc2[nH]c3c(=O)n(CCCC(=O)NC4CCCCC4C)c(=S)[nH]c3c2c1` (stereo not drawn), the “hERG current change (%, negative = inhibition) at 1uM” value is 2.65%. With `COc1ccc(-c2nnc3sc(-c4cccs4)nn23)cc1OC`, the “hERG current change (%, negative = inhibition) at 1uM” value is 6.62%. In the case of `Cc1cc2nc(CSc3ccc(Cl)cc3)cc(=O)n2[nH]1` it was 9.14%.

For `Cc1ccc(S(=O)(=O)N(CC(=O)NCCC2=CCCCC2)Cc2ccccc2F)cc1`, the “hERG current change (%, negative = inhibition) at 1uM” value is 6.21%. Regarding `Fc1cccc(Oc2nc3ccccc3n3cccc23)c1`, the “hERG current change (%, negative = inhibition) at 1uM” value was found to be 13.9%. Consider `Cc1ccc(SCc2noc(C(=O)NCC3CCCO3)c2C(=O)O)cc1C` (stereo not drawn), for which the “hERG current change (%, negative = inhibition) at 1uM” value is listed as 10.2%. To `O=C(NCCCN1CCCC1=O)c1cccnc1` belongs 14.3%; to `COc1ccc(O)c(/C=N/NC(=O)CCC(=O)Nc2ccc(F)cc2)c1`, 16.3%; to `Cc1[nH]c2ccccc2c1/C=N/NC(=O)c1ccc(N)cc1`, 14.8%. `CCOc1cc(S(=O)(=O)NC2CC(C)(C)NC(C)(C)C2)ccc1Cl`: the “hERG current change (%, negative = inhibition) at 1uM” value was 11.2%. In the case of `CCCCn1c(N)c(N(Cc2ccccc2OC)C(=O)CN2C(=O)NC(C)(c3ccccc3)C2=O)c(=O)[nH]c1=O` (stereo not drawn), the “hERG current change (%, negative = inhibition) at 1uM” value is listed as 22.4%. As for `O=C(N/N=C\c1ccccn1)C1c2ccccc2Oc2ccccc21`, the “hERG current change (%, negative = inhibition) at 1uM” value is 8.15%.

On to `CN(C)c1ccc(C(=S)N2CCN(C(=S)Nc3ccc(Cl)cc3)CC2)cc1`, for which the “hERG current change (%, negative = inhibition) at 1uM” value amounted to 15.2%. To `COc1ccccc1N1CCN(C(=O)C(NS(=O)(=O)c2cccs2)c2ccccc2)CC1` (stereo not drawn) belongs -10.8%; to `O=C(COC(=O)COc1ccc(Cl)cc1Cl)NC1CCCCCC1`, 10.1%. Take `COc1c2c(cc3oc(C)cc(=O)c13)OC(C(C)(C)OC1OC(CO)C(O)C(O)C1O)C2` (stereo not drawn): the “hERG current change (%, negative = inhibition) at 1uM” value was 15.7%.

In the case of `COc1ccc(N(CC(=O)Nc2ccccc2OC)S(=O)(=O)c2ccc(NC(C)=O)cc2)cc1`, the “hERG current change (%, negative = inhibition) at 1uM” value came out at 10%.

With `COc1cc(C)c(-c2[nH]ncc2-c2csc(C)n2)c(O)c1`, the “hERG current change (%, negative = inhibition) at 1uM” value worked out at 5.51%. In the case of `COc1ccc(C)cc1NC(=O)NCc1ccco1` it was 13.8%; in that of `C=C(C)Cn1c(-c2cccc([N+](=O)[O-])c2)n[nH]c1=S`, 6.8%. In the case of `NC(=O)NC(=O)C(OC(=O)CCNS(=O)(=O)c1ccccc1)c1ccccc1` (stereo not drawn) it was -3.71%.

Regarding `CCN(CC)C(=S)Sc1c(-c2ccccc2)c2cc(Cl)ccc2[nH]c1=O`, the “hERG current change (%, negative = inhibition) at 1uM” value amounted to 7.37%. For `COc1ccc(OC)c(NC(=O)CCN2CCCCCC2)c1.Cl`, the “hERG current change (%, negative = inhibition) at 1uM” value is listed as 8.93%. Consider `CCCN1C(=O)c2ccc(C(=O)NC3CCCCC3)cc2C1=O`, for which the “hERG current change (%, negative = inhibition) at 1uM” value is given as 10.7%. In the case of `CCOc1ccc(NC(=O)c2ccco2)cc1` it was 5.89%.

`O=C1NN(c2cccc(Br)c2)C(=O)/C1=C\c1ccc(O)cc1`: the “hERG current change (%, negative = inhibition) at 1uM” value is listed as 6.83%. Turning to `O=C(CCNS(=O)(=O)c1ccccc1)N1CCCC1`, the “hERG current change (%, negative = inhibition) at 1uM” value came to 11.5%. As to `O=C(O)Cn1cc(C(=O)C(F)(F)F)c2ccccc21`, the “hERG current change (%, negative = inhibition) at 1uM” value was 19.6%. To `COc1ccc(-n2nnnc2SCC(=O)NCc2ccco2)cc1OC` belongs 1.13%. In the case of `CCN(CC)S(=O)(=O)c1ccc(OC)c(NC(=O)c2ccc(OC)c([N+](=O)[O-])c2)c1`, the “hERG current change (%, negative = inhibition) at 1uM” value worked out at 3%. As to `CCOc1c(Cl)cc(/C=C/C(=O)N(CC)CC(=O)Nc2ccc(NC(C)=O)cc2)cc1OC`, the “hERG current change (%, negative = inhibition) at 1uM” value came to 3.18%. In the case of `O=C1C(Cl)=C(N2CCCCC2)C(=O)N1c1ccccc1Cl` it was 10.1%; in that of `O=C(COC(=O)c1ccccc1Nc1ccc(SC(F)F)cc1)NCc1ccco1`, 15.3%.

As for `NC(=O)c1ccccc1OCC(=O)Nc1ccc2c(c1)CCC2`, the “hERG current change (%, negative = inhibition) at 1uM” value was 8.55%.

As to `COc1ccc2c(c1)CCCN2S(=O)(=O)c1ccc(Cl)cc1`, the “hERG current change (%, negative = inhibition) at 1uM” value worked out at 12.4%. Take `O=C1CN(C(=O)OCc2ccccc2)c2ccccc2N1`: the “hERG current change (%, negative = inhibition) at 1uM” value was found to be 10.1%. To `COC(=O)C(C)C1Sc2ccccc2NC1=O` (stereo not drawn) belongs 5.04%. To `COc1ccccc1OCCC(=O)Nc1nc(C)cs1` belongs 7.48%. In the case of `COc1ccc(S(=O)(=O)CCC(=O)N2CC(=O)N(CCc3ccccc3)C(=O)C2)cc1` it was 5.42%; in that of `CCC(=NCCc1ccc(OC)c(OC)c1)C1=C(O)CC(C)(C)CC1=O`, 24.6%; in that of `O=C(COC(=O)C1CCCCC1)Nc1ccccc1OC(F)F`, 12.3%. With `O=C(Nc1ccc2sccc2c1)c1cccc(N2C(=O)CCC2=O)c1`, the “hERG current change (%, negative = inhibition) at 1uM” value was determined as 7.56%.

Turning to `Cc1ccc(C(=O)Nc2nc(=O)n(C(=O)CC(C)C)s2)cc1`, the “hERG current change (%, negative = inhibition) at 1uM” value is reported as 23.8%.

As for `Cc1ccc(C(C)C)c(OCC(=O)NNC(=O)Nc2ccccc2)c1`, the “hERG current change (%, negative = inhibition) at 1uM” value came out at 9.86%.

Consider `CCOc1ccc(NC(=O)CN(C)C(=O)C2=COCCO2)cc1OCC`, for which the “hERG current change (%, negative = inhibition) at 1uM” value was 2.56%. For the molecule `COc1cc(/C=C/C(=O)O)cc(S(=O)(=O)N(C)CCO)c1OC`, the “hERG current change (%, negative = inhibition) at 1uM” value is recorded as -4.59%.

Turning to `CCOC(=O)C(NC(=O)c1ccccc1Cl)(Nc1ccc(C)c(C)c1)C(F)(F)F` (stereo not drawn), the “hERG current change (%, negative = inhibition) at 1uM” value was determined as 13%. To `COc1ccc(N(C)S(=O)(=O)c2ccc3c(c2)CCC(=O)N3)cc1` belongs 0.558%; to `COC(=O)c1cccc(OC(N)=O)c1`, 6.84%; to `CCCc1nnc(NC(=O)C(CC)OC(=O)c2cc(C)nc3ccccc23)s1` (stereo not drawn), 1.69%.
